The campaign covered roughly 150,000 compounds. About 540 (0.36%) showed an effect of 50% or more. Some of the results follow.

This experiment has as its system Plasmodium falciparum. Kind of experiment: Primary screen in NF54 nanoGlo assay, in single point, at 2uM, 72h; a lower Z score goes with more inhibition. It counts as functional, Erythrocyte. The conditions noted are these: timepoint 72 hour.
Take `Cn1c(=O)n(Cc2ccc(Cl)cc2)c(=O)c2c1nc(CN1CCOCC1)n2CC(N)=O`: the “% Inhibition” value is given as -11% and the Z score was 1.36.
Taken in the same sequence, the figures for `Cc1noc(C)c1S(=O)(=O)NCc1cnoc1C` were -6% and 1.11.
Consider `Cc1nnc(O)nc1Nc1cccc(Cl)c1`, for which the “% Inhibition” value came to 1% and the Z score is recorded as -0.06.
The like results for `CN=C(NCCc1ccc2c(c1)OCO2)N(C)Cc1cnn(C)c1` were, in that order, -2% and 0.37.
Take `O=C(CCN1CCCC1=O)NCc1cccnc1N1CCCCCCC1`: the “% Inhibition” value is on record as -9% and the Z score amounted to 1.01.
The like results for `CCC(CC)S(=O)(=O)NC(=O)c1ncoc1C(C)C` were, in that order, -13% and 2.49.
Taken in the same sequence, the figures for `O=C(c1cccs1)N1CC[C@H](Oc2cccnn2)C1` were -6% and 0.66.
The like results for `Cc1ccn2c(C(=O)N3CCc4sccc4C3)nnc2n1` were, in that order, -17% and 1.48.
As for `O=C(N[C@@H]1CCCC(F)(F)[C@H]1O)c1noc2c1CCc1ccccc1-2`, the “% Inhibition” value turned out to be 3% and the Z score was -0.49.
Taken in the same sequence, the figures for `O=C(Cc1ncc[nH]1)N(Cc1ccccc1C(F)(F)F)CC1CC1` were 2% and -0.41.
For `O=C(NC1CCN(Cc2cccc3c2OCO3)CC1)c1ccsc1`, the “% Inhibition” value is reported as -10% and the Z score amounted to 1.22.
Taken in the same sequence, the figures for `Cn1cncc1CNC(=O)[C@H]1CCCN(c2ncccc2C(F)(F)F)C1` were -6% and 0.51.
Take `CN1CCC(N(CCc2ccccc2)C(=O)c2ncoc2C2CC2)CC1`: the “% Inhibition” value is recorded as -2% and the Z score is 0.28.
Taken in the same sequence, the figures for `O=C(Cc1cccc2ccccc12)Nc1ccc(Cl)c(N2CCCS2(=O)=O)c1` were 17% and -2.11.
Taken in the same sequence, the figures for `CC(C)(C)C[C@@H](CC(=O)O)NS(=O)(=O)c1ccc(C#N)cc1` were 1% and -0.19.
With `CCc1sc(C(=O)Nc2c(NC)c(=O)[nH]c(=O)n2CC)cc1C`, the “% Inhibition” value is 7% and the Z score was -0.85.
For `CCn1cc2ccc(C(=O)NC3CC3)cc2n1`, the “% Inhibition” value is on record as -11% and the Z score is 1.58.
On to `CCCC[C@@H](C(=O)Nc1ccc2c(c1)CCCCO2)N(CC)CC`, for which the “% Inhibition” value is reported as -1% and the Z score came to 0.17.
As for `Cc1nc(C)n(CCNC(=O)c2ccc3nc(C4CCCCC4)oc3c2)n1`, the “% Inhibition” value was -8% and the Z score was determined as 0.82.
Consider `CC(C)n1ccc(CS(=O)(=O)[C@H]2CCOC2)n1`, for which the “% Inhibition” value is recorded as -4% and the Z score is reported as 0.75.
On to `O=C(NCc1ccco1)C1Cc2ccccc2N2CCCCC12` (stereo unspecified), for which the “% Inhibition” value is given as -7% and the Z score is listed as 1.05.
The like results for `NC(=O)NC1(Cc2cccc(F)c2)CCC1` were, in that order, -4% and 0.45.
Turning to `CN(C)CCN(CC1CCCCC1)C(=O)NCc1ccc(F)cc1`, the “% Inhibition” value is given as -12% and the Z score is listed as 2.21.
Regarding `CC1=NN(c2nc(-c3ccc(Cl)c(Cl)c3)cs2)C(=O)[C@H]1C`, the “% Inhibition” value was 7% and the Z score is reported as -0.83.
Take `O=C(Nc1ccc(-c2ccc(N3CCCCC3)nn2)cc1)c1ccc2c(c1)OCO2`: the “% Inhibition” value is -5% and the Z score was found to be 0.59.
As for `COCc1cccc(OCc2noc3c2CCCC3)c1`, the “% Inhibition” value amounted to 25% and the Z score is recorded as -3.61.
Taken in the same sequence, the figures for `Cc1noc(C)c1CN1C(=O)[C@@H]2CC[C@H]1CN(C(=O)c1ccc(N)nc1)C2` were -11% and 2.11.
The like results for `CC1CCN(c2nccnc2Oc2ccc(C(=O)NCc3ccccc3Cl)cc2)CC1` were, in that order, 67% and -10.64.
The like results for `Cn1ccc(NC(=O)N(Cc2cccc(F)c2)C2CCC2)cc1=O` were, in that order, 0% and -0.04.
As to `Cc1cccc(CN2CCOc3ccc(C4=Cc5ccccc5C4)cc3C2)n1`, the “% Inhibition” value is on record as -3% and the Z score worked out at 0.43.
Taken in the same sequence, the figures for `C[C@H]1CCCN(CCC(=O)N2CCc3ccccc3C2)C1` were 25% and -3.23.
The like results for `CCCc1nccn1CC(O)CN1CC(C)OC(C)C1` (stereo unspecified) were, in that order, -17% and 1.4.
The like results for `Cc1ccc(C(=O)N[C@H]2CO[C@H]3[C@@H]2OC[C@@H]3n2cc(CN(C)Cc3ccccc3)nn2)cc1` were, in that order, 27% and -3.15.
As for `CC(CC(O)c1ccco1)NC(=O)c1ccc(Cl)cn1` (stereo unspecified), the “% Inhibition” value is -14% and the Z score stood at 2.19.
`O=C(Cn1ccc([C@H]2CCCNC2)n1)N1CCC(Cc2ccccc2)CC1`: the “% Inhibition” value was found to be 2% and the Z score is listed as -0.4.
The like results for `COc1cc(OC)cc(C(=O)N2CCN(c3cc(C)nc(N4CCOCC4)n3)CC2)c1` were, in that order, -15% and 2.65.
The like results for `COC[C@H](C)Nc1ccnc2ccsc12` were, in that order, 6% and -1.04.
On to `COCc1c(C(=O)NCCCN2CCOCC2)cnn1-c1nccc(-c2ccccc2F)n1`, for which the “% Inhibition” value is recorded as -11% and the Z score turned out to be 1.39.
As to `O=C1CNC(=O)N1Cc1nc([C@H]2CCOC2)nn1-c1ccccc1`, the “% Inhibition” value is listed as -12% and the Z score is given as 1.53.
Taken in the same sequence, the figures for `O=C(N[C@H]1CCN(c2cc(N3CCOCC3)cnn2)C1)C1CCCC1` were -11% and 1.5.
Taken in the same sequence, the figures for `COCCN(CC1CCN(Cc2ccccc2F)CC1)C(=O)c1cc(CC(C)C)on1` were -7% and 1.05.
Consider `Cn1ccnc1CN1C[C@@H]2CC[C@H]1CN(Cc1cscn1)C2`, for which the “% Inhibition” value is on record as 1% and the Z score was -0.12.
On to `COc1ccccc1CC(=O)Nc1ccc(N2CCN(Cc3ccccc3)C2=O)nc1`, for which the “% Inhibition” value is -12% and the Z score is recorded as 1.26.

Values taken from ChEMBL document CHEMBL4888484, “Replenishing the malaria drug discovery pipeline: Screening and hit evaluation of the MMV Hit Generation Library 1 (HGL1) against asexual blood stage Plasmodium falciparum ,using a nano luciferase reporter read-out” (2022).
